Measured values reported in the supplement of paper PMC11417369.
± gives the standard deviation of the averaged measurements. The list shows a part of the results.

What follows are sequences tested on PfAP2-I AP2 domain 3 (GST-tagged) (assay: gcPBM binding intensity (ln(normalized median fluorescence intensity)); higher = stronger DNA binding).
Procedure, shortened: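 Probes on an Agilent 4 × 180k array were primer-extended, double-stranded and 36 bp long, taken from intergenic genomic regions, with negative controls added. GST-tagged P. falciparum DNA-binding domains from E. coli, about 25 μg on average, were applied to the array for 1 h in 1× PBS containing 1% milk, 0.2 mg/ml BSA, 0.5% salmon testes DNA and 0.03% Triton X-100. Binding intensity, obtained after Alexa488 anti-GST antibody detection and a 488 nm scan, is the highest Masliner-normalised natural-log median intensity across replicate spots of either probe orientation.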

In order of rising “gcPBM binding intensity (ln)” value:
1. TATATAAGAATATATACACACATATATGTATATATA [CACACA_site2178]  7.42 ± 0.35
2. TAAATAAATAAAAATAGTACATAATTATTATTATTA [XGTACX_site4981]  7.42 ± 0.22
3. TTAAAATAGCTAGTTTGTACATAAAATATATTACTT [XGTACX_site202]  7.43 ± 0.49
4. AAAAAGAAAAAAGAAAGTACAAATATACACATTTTT [XGTACX_site3343]  7.44 ± 0.64
5. ATATATTTAAACAAAAGTACAAATCATAAATTCAAG [XGTACX_site3633]  7.45 ± 0.44
6. AAAAAATATTATATATGTACATAATATTTTTTTTTT [XGTACX_site5909]  7.47 ± 0.39
7. TTTTACAATGAAATATGTACTTAAATGTCCAAATTC [XGTACX_site781]  7.49 ± 0.49
8. GTGTAAATATAATTAGTTTCACAAAACAAATATTTA [CACACA_negctrl_site717]  7.5 ± 0.4
9. AGATTGGAACATTAAAGTACTTACTTTTTTTTTTTT [XGTACX_site8017]  7.54 ± 0.39
10. TATTTAATTATTTGTAGTACGATTAATATTTAATGA [XGTACX_site3553]  7.54 ± 0.26
11. TTTTAAAAAATATAATAATATAAATATGTTTTATAC [CACACA_negctrl_site643]  7.54 ± 0.42
12. ATAAAAATATTGTCTAGTACATATTTATAATAAAAA [XGTACX_site7523]  7.58 ± 0.35
13. TATATTAGAAAGGATACACACATATATATATATCTA [CACACA_site570]  7.58 ± 0.53
14. AAAAAAAAAAGACACACACACATATTTATTTATATA [CACACA_site6484]  7.59 ± 0.35
15. TATATTTATCTGATAACACACATAAATTAGACATTT [CACACA_site6887]  7.6 ± 0.37
16. TTATTATATAAAATAAATAACAAAAAAAATAAAATA [GTGCAC_negctrl_site548]  7.61 ± 0.42
17. AGAAATATATCTATTTGTCCGTATATTCATATTTAT [XGTACX_site8427]  7.61 ± 0.69
18. ATTATATTCTTTACTACCAATTAGTAGAAAATAAAA [CACACA_negctrl_site1096]  7.61 ± 0.29
19. TGACATAAAAAATATACACACTATAATATTTATACT [CACACA_site6776]  7.62 ± 0.42
20. ATTCTAGTAATATATGTATATTTATATATGTATGTG [XGTACX_negctrl_site419]  7.65 ± 0.31
21. ATTGTTTTATATAGAACACACATAAAAATCTATATG [CACACA_site6681]  7.65 ± 0.47
22. AATATAATTTTTTATTGTACAAAAAAATTATTTAAT [XGTACX_site3248]  7.65 ± 0.38
23. TTTAATCAAATTAAAAGTACAGAATTGTTCATGTAG [XGTACX_site1229]  7.67 ± 0.57
24. AAATAAAATACAAGTTGTACTATAAGCTTTTTATAT [XGTACX_site8021]  7.67 ± 0.64
25. TTTAATTAAATATGTATATATATTCATGTATGTATA [GTGCAC_negctrl_site14]  7.68 ± 0.26
26. TAATTTAATAATTAGACACACATGTCTAAAATAAAA [CACACA_site2527]  7.69 ± 0.48
27. CATATACAGAAACACACACACACATAAATAAATATA [CACACA_site1343]  7.7 ± 0.28
28. CAACATTTATATTTTACACACATCATTTAAGCGCTT [CACACA_site992]  7.71 ± 0.68
29. AATATATATATATATATTTTTGTTAGAATATGGAAT [GTGCAC_negctrl_site434]  7.74 ± 0.38
30. ATAAAAGATTTATACATACACACATATTATATTCAC [CACACA_site3714]  7.76 ± 0.53
31. TTTTTATTATAAGGTCGTACAATTGTAATTATTGTA [XGTACX_site1413]  7.78 ± 0.22
32. ATTTTTTAAAAAGTAACACACACTCTTATATATAAT [CACACA_site9206]  7.84 ± 0.64
33. TTAACCATTAATTCTCTACACACTTTTATTTTATTT [CACACA_site8522]  7.84 ± 0.8
34. ATAGAATATTAATAATTAAAAATAAAATAAAATAAA [CACACA_negctrl_site1810]  7.84 ± 0.68
35. AAAAGAAATTTGGGCACATGCGAATTTATAATTTAT [TGCATGCA_site960]  7.85 ± 0.78
36. TATATATTCTTTTAATGTACATATTGTATTATATCC [XGTACX_site4501]  7.86 ± 0.38
37. TACAAAATAAATGGAACATGCAAAAAAATTGATTAA [TGCATGCA_site790]  7.86 ± 0.75
38. ATATATATGTATATAACATGCAACATTTAATAATAA [TGCATGCA_site1018]  7.88 ± 0.49
39. TGTTTTTGTGATCATATGAAAAAATTACCTACAAGG [CACACA_negctrl_site279]  7.88 ± 0.5
40. AATATATAAGTGTTGTGTACTAAAGTATTTTCCTAT [XGTACX_site1622]  7.88 ± 0.54
41. TATTATTAATATGTATGGTTGTAATCTGTGTCTCCT [TGCATGCA_negctrl_site190]  7.88 ± 0.43
42. TAAAGTATTACAACCACACACACACCGATATATTAT [CACACA_site9382]  7.95 ± 0.42
43. TTTTTTTTTATCAAATGTACATATATATAATAATAA [XGTACX_site3941]  7.96 ± 0.35
44. AACGTTCATAATTATTGTACCCTCATTTTATTTTTT [XGTACX_site503]  7.96 ± 0.83
45. TATATACTCAAACACACACACACATACACAGACATA [CACACA_site5025]  7.97 ± 0.13
46. CTTAATAAGAATAAATGTACAAGGGATAAAAAATTT [XGTACX_site3213]  8.02 ± 0.73
47. ATAGTTTTACACATTTGTACATAATTTACAACAAAA [XGTACX_site25]  8.04 ± 0.54
48. ATGGGTATTAAGTGTACACATATAGTGTATTTTGTT [CACACA_site4452]  8.04 ± 0.49
49. TATATATATGAGTATACACACCTGATAAAGGTATAT [CACACA_site5462]  8.05 ± 0.7
50. ATTTTGACATTATATAGTACATATAATTTACATTTA [XGTACX_site3024]  8.06 ± 0.23
51. TTAAACTTGAAACACACACACACACCGATATAAAAA [CACACA_site4578]  8.06 ± 0.45
52. ATAACTTTTTAAAAGACACACATAAGAAAAACAAAA [CACACA_site723]  8.08 ± 0.64
53. CCTATCCATACATATACACACATATCTATTTATATA [CACACA_site1669]  8.09 ± 0.68
54. TTTTTTTTTTTATGCTCACACATTAATTTTTATACA [CACACA_site4527]  8.11 ± 0.61
55. AGTAGATATAAAAGGAGTACACATATATATATAAAT [XGTACX_site4375]  8.14 ± 0.44
56. TTTTTTTTTTGTTGTTGTACTCTTATATTTTTATAT [XGTACX_site6178]  8.18 ± 0.64
57. TCATAGCTAGGATAACGTACAGAAAAGTGAAAAATT [XGTACX_site3322]  8.19 ± 0.95
58. TTTTTTATATATATTTGTACATATTGCATGTTCCCT [XGTACX_site7143]  8.19 ± 1.1
59. AAAAAGAAAAATTGCACACACTTATAAAAATATACG [CACACA_site6074]  8.22 ± 0.36
60. TGTCTTATATATATTACACACTATATGAAAAAATAT [CACACA_site1487]  8.24 ± 0.6
61. TCTTTATCTTCTTATACACACATTTATTAAAAAAAA [CACACA_site445]  8.24 ± 0.46
62. TATACGCAGAAACACACACACATACACCCACATACA [CACACA_site1723]  8.24 ± 0.099
63. TTTTTTTTTTTTTTTTAACACACATATATATATTTT [CACACA_site8585]  8.26 ± 0.67
64. TATGTATGTATGTATGTATGCATGTCTAACACCTAA [TGCATGCA_site360]  8.27 ± 0.71
65. ATATGCTATTATATATGTACACACCAATTTATTTAT [XGTACX_site8364]  8.29 ± 0.56
66. TATCTTATAAACTCTGCACACATAATATATTAAATG [CACACA_site8587]  8.36 ± 0.51
67. CAAAAGTAAGCACGCACACACAACATGAAATAAACT [CACACA_site6223]  8.36 ± 0.63
68. ATATATATGTATGTATGTACACACAAAAAATGGAAT [XGTACX_site7879]  8.37 ± 0.64
69. AATAAGTATACACATACACACACACCCAAAAAAAAA [CACACA_site8034]  8.39 ± 0.31
70. ATAAAACGAAGATGTTGTACGTACAAATAAATGAAT [XGTACX_site2472]  8.47 ± 0.45
71. TATATTAATATGAAAAGTACACATTCTATATATATA [XGTACX_site929]  8.61 ± 0.26
72. AATATGGTTATATATATATATATATATATATATATT [GTGCAC_negctrl_site566]  8.62 ± 0.49
73. GATCTATTGAGTGATACATGCAGGAAAATTAAAAAC [TGCATGCA_site729]  8.69 ± 1.3
74. CATTTTGTAAGATATGCACACATGGATCATATTTTA [CACACA_site423]  8.74 ± 0.27
75. AAAAAAAAAAAAAAAACACACATTTTAAGAAAAAAA [CACACA_site2926]  8.86 ± 0.64
76. ATATATATATGTTTGTGTACTTATGATATCATATAA [XGTACX_site3276]  9 ± 0.23
77. TATATATATATATATACATGCATATTTTTTATTTTT [TGCATGCA_site464]  9.14 ± 0.21
78. TTTCCGTATAATTTTGCACACGAATATAAATTTGAT [CACACA_site137]  9.21 ± 0.014
79. ATATATATATATTCCACACACACACTAATAAAAAAA [CACACA_site9214]  9.29 ± 0.12
80. GATTACTAGAAATGCACACACTGATAAAATAAGGAA [CACACA_site6131]  9.29 ± 0.085
81. ATAGTATCTGGTAGCTGTACGAGTCGTATAGTGCAG [XGTACX_site2542]  9.36 ± 0.014
82. AGGCACAAAATTAAATGTACATATATATATATATAT [XGTACX_site3323]  9.38 ± 0.26
83. TATATATATATGTGTACACATTTGTCAGATTATATA [CACACA_site4813]  9.4 ± 0.24
84. AAAAATTTTAATTAGGAACACACATATATATATATA [CACACA_site9016]  9.43 ± 0.38
85. TTAATTAATTTTTCAGTGCAAATAAAAAATATTTAA  10.4 ± 0.64
86. GTTAACAAATAATGCACACAAATGGATAAAATTATA [CACACA_site3725]  10.7 ± 0.76
87. TTTGAAATAAATAATGCACACTCTACATATATACGT [CACACA_site2244]  11.1 ± 0.61
88. ATTTTTTTTTTTTTTTTTTTTGCACCATAAAATAAT [CACACA_negctrl_site1324]  11.2 ± 0.56
